# According to PubChem BioAssay AID1468 (National Center for Advancing Translational Sciences (NCATS), 2008):
# The whole screen tested about 280,000 compounds, of which about 1,100 (0.39%) were called active. The inconclusive results got no clear call from the source; some entries with a clear call stand among them for comparison. Calls follow the shape of the dose curve; as a rule, active = well fitted inhibition curve with a large enough effect; inconclusive = small, poorly fitted or top-dose-only effect, or effect the other way; inactive = flat fitted curve, though single readings scatter. No potency is given beside an inconclusive call; the fits are too rough.
# Biological target: Microtubule-associated protein tau (Homo sapiens) (UniProt P10636)
# Assay: qHTS for Inhibitors of Tau Fibril Formation, Fluorescence Polarization; also: nearly all actives have a fitted effect of over 55% in size
# Settings: K18 P301L tau heparin fibrillization, Alexa594 FP, 6 h; series mostly up to 57.7 µM; activity, negative = inhibition: at the top concentration
# Summary of the method: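 Read-out: fluorescence polarization of Alexa 594-labeled tau (0.24 uM), 555 nm excitation, 632 nm emission. Mixtures held 15 uM unlabeled K18 P301L, compound and 20 uM heparin, pH 7 acetate buffer, incubated 6 hr at 37 C.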
# % is scaled to controls: 0 for no effect and ±100 for the full control effect; potency is read from the fitted curve at half-maximal effect; tags tell the direction and shape of the fitted curve.
# Chain of UniProt P10636 (P10636 whole entry, looked up): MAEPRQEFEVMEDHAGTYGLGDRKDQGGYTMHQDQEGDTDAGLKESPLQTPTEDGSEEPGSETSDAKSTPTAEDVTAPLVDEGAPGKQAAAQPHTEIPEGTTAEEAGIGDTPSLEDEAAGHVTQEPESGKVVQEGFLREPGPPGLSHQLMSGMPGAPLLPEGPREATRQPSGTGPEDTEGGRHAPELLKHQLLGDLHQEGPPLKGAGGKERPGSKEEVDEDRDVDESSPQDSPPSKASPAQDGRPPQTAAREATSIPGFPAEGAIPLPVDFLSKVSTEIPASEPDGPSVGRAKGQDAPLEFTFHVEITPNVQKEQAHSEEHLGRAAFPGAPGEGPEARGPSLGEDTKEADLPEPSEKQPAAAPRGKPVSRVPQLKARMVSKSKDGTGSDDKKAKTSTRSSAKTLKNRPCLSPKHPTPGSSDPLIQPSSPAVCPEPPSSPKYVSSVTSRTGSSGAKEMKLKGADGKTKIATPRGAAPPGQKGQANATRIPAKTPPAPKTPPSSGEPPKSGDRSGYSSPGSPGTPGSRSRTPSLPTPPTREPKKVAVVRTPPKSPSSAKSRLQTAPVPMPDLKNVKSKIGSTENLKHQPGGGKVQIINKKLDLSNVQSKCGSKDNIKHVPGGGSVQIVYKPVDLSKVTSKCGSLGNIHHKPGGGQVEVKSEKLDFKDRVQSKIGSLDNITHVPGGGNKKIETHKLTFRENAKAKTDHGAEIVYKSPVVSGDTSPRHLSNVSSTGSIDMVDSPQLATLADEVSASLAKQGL
SMILES,Potency,"activity, negative = inhibition"
Cc1ccc(C)c2c1cc(C)c1nnc(SCC(=O)Nc3cccc(C(=O)O)c3)n12,"inconclusive [inhibitor, single point]",–
CN(C)c1cccc(C(=O)Nc2nc3ccc(S(=O)(=O)N4CCCC4)cc3s2)c1,"inconclusive [activator, partial curve]",–
COc1cccc(N2CCN(C(=O)c3ccc(=O)oc3)CC2C)c1 (centres undefined),–,inactive: -3.52%
O=S(=O)(c1ccc(Cl)cc1)c1nnn2c1nc(NC1CCCCC1)c1sccc12,"inconclusive [inhibitor, partial curve, poor fit]",–
COCCCn1cnc2c(c1=O)c1nc3ccccc3nc1n2-c1ccc(C)cc1,–,inactive: 5.33%
O=C1N2CN(C(c3ccccc3)c3ccccc3)CN=C2SC1(CO)CO,"inconclusive [inhibitor, partial curve]",–
Cc1ccc(S(=O)(=O)N/N=C/c2cccc(OC3CSC3)c2)cc1,–,inactive: -11.8%
O=C(CCn1c(=O)c2sccc2n(CC(=O)Nc2ccccc2)c1=O)NCc1ccccc1Cl,"inconclusive [inhibitor, single point]",–
Nc1nc(-c2sc3nc4c(cc3c2N)CCCC4)nc(N2CCOCC2)n1,"inconclusive [activator, partial curve]",–
COc1ccc(S(=O)(=O)Nc2ccc(F)c(F)c2)cc1Cl,"inconclusive [inhibitor, full curve, poor fit]",–
Cc1ccc(C2CCN(C(=O)Nc3ccc(Cl)c(Cl)c3)C2)cc1 (centres undefined),"inconclusive [inhibitor, single point]",–
Cc1ccc(-c2nnc(Nc3ccccc3)c3ccccc23)cc1S(=O)(=O)N1CCOCC1,"inconclusive [inhibitor, partial curve, poor fit]",–
Cc1ccc(CNC(=O)c2ccc3c(c2)N(Cc2ccccc2Cl)C(=O)CS3)cc1,–,inactive: -3.49%
Cc1oc2ncn(C)c(=O)c2c1C(=O)Nc1ccc(F)cc1,–,inactive: -0.0271%
CCc1nn(CC(=O)NCCc2ccc(Cl)cc2)c(=O)c2cc3ccccc3n12,"inconclusive [inhibitor, single point]",–
Cc1ccc(Cl)cc1N1CCN(c2cccc[n+]2C)CC1,–,inactive: -3.98%
O=C(CN1CCCC1)Nc1ccccc1Sc1ccc(Cl)cc1,–,inactive: 1.5%
COP(=O)(OC)C(Nc1ccc(C)cc1)c1ccc([N+](=O)[O-])cc1 (centres undefined),–,inactive: 10.8%
Cc1ccc2c(nc3s/c(=C/c4cccs4)c(=O)n32)c1C,"inconclusive [inhibitor, single point]",–
Cc1cc(C)cc(OCCCn2c(-c3ccc(Cl)cc3)nc3ccccc3c2=O)c1,–,inactive: -5.04%
COc1ccc(-c2nn(-c3ccccc3)cc2/C=N/N=C(N)N)cc1OC,"inconclusive [inhibitor, single point]",–
Oc1c(Br)cc(Br)cc1CNc1ccccn1,"inconclusive [activator, partial curve, poor fit]",–
CCOc1ccccc1-c1nc(Cn2c(=O)cc(C)c3c(C)nn(-c4ccccc4)c32)c(C)o1,–,inactive: -1.58%

SMILES,Potency,"activity, negative = inhibition"
Cc1cc(C)cc(NC(=O)C2CCCN2S(=O)(=O)c2ccc3nc(-c4ccccc4)[nH]c3c2)c1 (centres undefined),"inconclusive [inhibitor, partial curve]",–
O=C(COc1ccc(/C=N/NC(=O)c2cc3ccccc3o2)cc1Br)Nc1ccccc1,"inconclusive [inhibitor, partial curve]",–
COC(=O)c1sc(-c2ccccc2)cc1NC(=O)Nc1ccc(F)cc1,active: 17.8 µM,–
CCN(CC)CCC(c1ccc(N(C)C)cc1)c1c(O)cc(OC)cc1OC (centres undefined),–,inactive: 3.77%
O=C(/C=C/c1c(F)cccc1Cl)Nc1nc2ccccc2[nH]1,–,inactive: -18.1%
O=C(CSC1=NCCN1)Nc1cccc([N+](=O)[O-])c1,"inconclusive [inhibitor, single point]",–
CCCn1c(C)cc(-c2csc(N)n2)c1C,"inconclusive [inhibitor, partial curve, poor fit]",–
CN(C)S(=O)(=O)c1ccc(C(=O)N2CCC(c3nc4ccccc4o3)CC2)cc1,–,inactive: 1.15%
CN(C)S(=O)(=O)c1cccc(NC(=O)CSc2nc3c(cc2C#N)C(=O)CC(C)(C)C3)c1,"inconclusive [inhibitor, partial curve, poor fit]",–
CCCOc1ccc(C(=O)Nc2ccc(N3CCN(C(C)=O)CC3)cc2)cc1,–,inactive: -3.04%
CC1CCCCN1S(=O)(=O)c1ccc(C(=O)Nc2sccc2C(N)=O)cc1 (centres undefined),"inconclusive [inhibitor, single point]",–
O=C(NC(=S)Nc1ccc(N2CCOCC2)cc1)c1ccc2c(c1)OCCO2,–,inactive: 8.55%
OCCCCCNc1ncnc2ccccc12,"inconclusive [activator, full curve, poor fit]",–
Cc1ccc2onc(CNC(=O)NCc3ccc(Cl)cc3)c2c1,"inconclusive [inhibitor, partial curve, poor fit]",–
Cn1c(SC2=CS(=O)(=O)c3ccccc32)nc2ccccc21,"inconclusive [inhibitor, partial curve]",–
Cc1c(NC(=O)c2ccccc2NS(=O)(=O)c2ccc(Br)cc2)c(=O)n(-c2ccccc2)n1C,"inconclusive [inhibitor, single point]",–
CCCCCCOc1ccc(N2C(=O)CC(NCCc3ccc(S(N)(=O)=O)cc3)C2=O)cc1 (centres undefined),"inconclusive [inhibitor, single point]",–
Cc1ccn2c(=O)cc(COc3ccc(NC(=O)COc4ccc(C)c(C)c4)cc3)nc2c1,–,inactive: 0.848%
CCOc1cc(C2c3c(oc4ccccc4c3=O)C(=O)N2Cc2ccc(OC)cc2)ccc1O (centres undefined),"inconclusive [inhibitor, full curve, poor fit]",–
COc1cc(C2OCC3C(c4ccc(OC5OC(CO)C(O)C(O)C5O)c(OC)c4)OCC23)ccc1O (centres undefined),–,inactive: -9.49%
COCCNC(=O)CCCn1c(SCC(=O)c2ccc(Br)cc2)nc2c(sc3ccccc32)c1=O,"inconclusive [inhibitor, partial curve]",–
Cc1ccc(C(=O)c2oc3ccccc3c2NC(=O)Cc2coc3ccc(C)cc23)cc1,"inconclusive [inhibitor, single point]",–
CCN1CCN(Cc2ccc(NC(=O)c3cc(NC(=O)c4ccno4)cc(OC)c3)cc2C(F)(F)F)CC1,–,inactive: -16.2%

SMILES,Potency,"activity, negative = inhibition"
Cc1cccc(C2=N[C@@H](CC(C)C)CO2)c1,–,inactive: -8.42% [at 126 µM]
Cc1ccc(/C=N/c2sc(Cc3ccccc3)c(C)c2C(N)=O)o1,–,inactive: 7.02%
Cc1ccc2nc(NCc3ccccc3Cl)c3nnnn3c2c1,"inconclusive [inhibitor, full curve, poor fit]",–
CCOc1ccc(C(=O)c2ccc(O)c(O)c2O)cc1,"inconclusive [inhibitor, partial curve]",–
CCc1nnc(NC(=O)c2nc(S(C)(=O)=O)ncc2Cl)s1,–,inactive: -2.82%
COc1cccc2cc(C(=O)N3CCc4ccccc4C3)c(=O)oc12,–,inactive: 4.51%
COC(=O)[C@H](CC(C)C)NC(=O)NC1CCCCC1C (some centres undefined),–,inactive: -3.93%
CCN(CC)CCCN(Cc1cc2cc(OC)ccc2[nH]c1=O)C(=O)Nc1ccc(F)cc1,–,inactive: 2.37%
CC(=O)N1[C@H](C)C=C[C@]1(Cc1ccccc1)C(=O)NCc1ccc(C)o1,–,inactive: 1.2%
CCOc1cc(S(=O)(=O)NC2CCCCC2)ccc1F,"inconclusive [inhibitor, single point]",–
CCCC(C)C(=O)Nc1nc(C)c(-c2csc(Nc3ccccc3OC)n2)s1 (centres undefined),"inconclusive [activator, partial curve]",–
Cc1cc(C)c(C(=O)COC(=O)[C@H](C)Nc2ccc(C(F)(F)F)cc2[N+](=O)[O-])c(C)c1,"inconclusive [activator, single point]",–
O=C(O)C(Cc1ccccc1)N1Cc2ccccc2C1=O (centres undefined),"inconclusive [inhibitor, partial curve]",–
COc1ccc(NC(=O)c2nc(SCc3ccccc3F)ncc2Cl)cc1,"inconclusive [inhibitor, partial curve]",–
O=C(Nc1ccc2oc(-c3cccnc3)nc2c1)c1ccc(-c2cccc(OC(F)(F)F)c2)o1,"inconclusive [inhibitor, single point]",–
Cc1[nH]nc(-c2ccc(OCc3cnn(-c4ccccc4)c3)c(C)c2O)c1Oc1ccccc1,"inconclusive [inhibitor, partial curve, poor fit]",–
CCOC(=O)c1c(C)[nH]c(N=Nc2cccc(OC)c2)c1C,–,inactive: 10.8%
COC(=O)c1ccccc1NC(=O)c1nc(S(=O)(=O)Cc2ccccc2F)ncc1Cl,"inconclusive [activator, single point]",–
O=S(=O)(NC1CCN(Cc2ccccc2)CC1)c1cccc(S(=O)(=O)N2CCOCC2)c1,"inconclusive [inhibitor, partial curve]",–
Cc1ccc2oc(C(=O)Nc3ccc(S(=O)(=O)N(C)Cc4ccccc4)cc3)cc(=O)c2c1,"inconclusive [inhibitor, partial curve]",–
Cc1cc(N2CCN(C)CC2)nc2ccc(NC(=O)Nc3ccccc3)cc12,"inconclusive [activator, partial curve, poor fit]",–
Cc1ccc(NC(=O)CC2=NC(=O)C(CC(=O)Nc3ccccc3C)S2)cc1 (centres undefined),"inconclusive [inhibitor, single point]",–
Cc1ccc(/C=N/Nc2cc(C)nc(NCc3ccccc3)n2)cc1,"inconclusive [inhibitor, partial curve]",–
